Assay results taken from the supplement of paper PMC4967469.
Lines with a small IC50 respond at low doses; where the fit passes the top or lowest dose, that dose stands as a limit. AUC sums up the same curve from the lowest dose to the 256-fold higher top dose; it is 1 without any effect and falls as sensitivity rises. For part of these data: Where the top dose is marked as inferred, it is not printed in the source and was worked back from the curve model.

Experiments:
Test in all cases: Viability of human cancer cell lines after 72 h of drug (GDSC screen)
Obatoclax mesylate = compound: COC1=CC(c2cc3ccccc3[nH]2)=N/C1=C\c1[nH]c(C)cc1C [Obatoclax mesylate]; settings: top dose 16 µM
Experimental: (§1)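 Human cancer cell lines in 384-well plates, medium with 10% serum, drug for 72 h over a 256-fold dose range (nine 2-fold or five 4-fold steps up to the top dose). Adherent lines were fixed and stained with the nucleic acid dye Syto60, suspension lines read with resazurin; signal relative to control wells, capped at 0 and 100%. One two-parameter sigmoid per drug and line, fitted in a mixed model over all curves with the slope shared within a line.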

CP724714 = compound: COCC(=O)NC/C=C/c1ccc2ncnc(Nc3ccc(Oc4ccc(C)nc4)c(C)c3)c2c1 [CP724714]; settings: top dose 10.24 µM; top dose inferred
Experimental: as §1

STF-62247 = compound: Cc1cccc(Nc2nc(-c3ccncc3)cs2)c1 [STF-62247]; settings: top dose 10.24 µM; top dose inferred
Experimental: as §1

CX-5461 = compound: Cc1cnc(CNC(=O)c2c(=O)c3ccc(N4CCCN(C)CC4)nc3n3c2sc2ccccc23)cn1 [CX-5461]; settings: top dose 10.24 µM; top dose inferred
Experimental: as §1

NCI-H841 (small cell lung carcinoma, adherent)
AUC (Obatoclax mesylate): 0.608
IC50 (Obatoclax mesylate): 1.98 µM
AUC (CP724714): 0.977
IC50 (CP724714): > 10.2 µM
AUC (STF-62247): 0.977
IC50 (STF-62247): > 10.2 µM
AUC (CX-5461): 0.957
IC50 (CX-5461): > 10.2 µM

NCI-H1048 (small cell lung carcinoma, adherent)
AUC (Obatoclax mesylate): 0.528
IC50 (Obatoclax mesylate): 1.18 µM
AUC (CP724714): 0.973
IC50 (CP724714): > 10.2 µM
AUC (STF-62247): 0.984
IC50 (STF-62247): > 10.2 µM
AUC (CX-5461): 0.868
IC50 (CX-5461): 7.8 µM

NCI-H1435 (lung adenocarcinoma, semi-adherent)
AUC (Obatoclax mesylate): 0.51
IC50 (Obatoclax mesylate): 1.06 µM
AUC (CP724714): 0.993
IC50 (CP724714): > 10.2 µM
AUC (STF-62247): 0.993
IC50 (STF-62247): > 10.2 µM
AUC (CX-5461): 0.992
IC50 (CX-5461): > 10.2 µM

NCI-H1437 (lung adenocarcinoma, adherent)
AUC (Obatoclax mesylate): 0.381
IC50 (Obatoclax mesylate): 0.464 µM
AUC (CP724714): 0.962
IC50 (CP724714): > 10.2 µM
AUC (STF-62247): 0.976
IC50 (STF-62247): > 10.2 µM
AUC (CX-5461): 0.985
IC50 (CX-5461): > 10.2 µM

NCI-H1563 (lung adenocarcinoma, adherent)
AUC (Obatoclax mesylate): 0.739
IC50 (Obatoclax mesylate): 5.57 µM
AUC (CP724714): 0.949
IC50 (CP724714): > 10.2 µM
AUC (STF-62247): 0.982
IC50 (STF-62247): > 10.2 µM
AUC (CX-5461): 0.974
IC50 (CX-5461): > 10.2 µM

NCI-H1568 (lung adenocarcinoma, adherent)
AUC (Obatoclax mesylate): 0.299
IC50 (Obatoclax mesylate): 0.233 µM
AUC (CP724714): 0.968
IC50 (CP724714): > 10.2 µM
AUC (STF-62247): 0.981
IC50 (STF-62247): > 10.2 µM
AUC (CX-5461): 0.982
IC50 (CX-5461): > 10.2 µM

NCI-H1573 (lung adenocarcinoma, adherent)
AUC (Obatoclax mesylate): 0.843
IC50 (Obatoclax mesylate): 10.8 µM
AUC (CP724714): 0.989
IC50 (CP724714): > 10.2 µM
AUC (STF-62247): 0.987
IC50 (STF-62247): > 10.2 µM
AUC (CX-5461): 0.99
IC50 (CX-5461): > 10.2 µM

NCI-H1623 (lung adenocarcinoma, adherent)
AUC (Obatoclax mesylate): 0.685
IC50 (Obatoclax mesylate): 3.73 µM
AUC (CP724714): 0.976
IC50 (CP724714): > 10.2 µM
AUC (STF-62247): 0.985
IC50 (STF-62247): > 10.2 µM
AUC (CX-5461): 0.985
IC50 (CX-5461): > 10.2 µM

NCI-H1651 (lung adenocarcinoma, adherent)
AUC (Obatoclax mesylate): 0.413
IC50 (Obatoclax mesylate): 0.565 µM
AUC (CP724714): 0.983
IC50 (CP724714): > 10.2 µM
AUC (STF-62247): 0.987
IC50 (STF-62247): > 10.2 µM
AUC (CX-5461): 0.985
IC50 (CX-5461): > 10.2 µM

NCI-H1688 (small cell lung carcinoma, adherent)
AUC (Obatoclax mesylate): 0.422
IC50 (Obatoclax mesylate): 0.596 µM
AUC (CP724714): 0.952
IC50 (CP724714): > 10.2 µM
AUC (STF-62247): 0.984
IC50 (STF-62247): > 10.2 µM
AUC (CX-5461): 0.976
IC50 (CX-5461): > 10.2 µM

NCI-H1693 (lung adenocarcinoma, adherent)
AUC (Obatoclax mesylate): 0.548
IC50 (Obatoclax mesylate): 1.46 µM
AUC (CP724714): 0.969
IC50 (CP724714): > 10.2 µM
AUC (STF-62247): 0.969
IC50 (STF-62247): > 10.2 µM
AUC (CX-5461): 0.977
IC50 (CX-5461): > 10.2 µM

NCI-H1703 (lung adenocarcinoma, adherent)
AUC (Obatoclax mesylate): 0.437
IC50 (Obatoclax mesylate): 0.647 µM
AUC (CP724714): 0.95
IC50 (CP724714): > 10.2 µM
AUC (STF-62247): 0.977
IC50 (STF-62247): > 10.2 µM
AUC (CX-5461): 0.982
IC50 (CX-5461): > 10.2 µM

NCI-H1734 (lung adenocarcinoma, adherent)
AUC (Obatoclax mesylate): 0.413
IC50 (Obatoclax mesylate): 0.563 µM
AUC (CP724714): 0.982
IC50 (CP724714): > 10.2 µM
AUC (STF-62247): 0.983
IC50 (STF-62247): > 10.2 µM
AUC (CX-5461): 0.902
IC50 (CX-5461): > 10.2 µM

NCI-H1755 (lung adenocarcinoma, adherent)
AUC (Obatoclax mesylate): 0.743
IC50 (Obatoclax mesylate): 5.65 µM
AUC (CP724714): 0.863
IC50 (CP724714): > 10.2 µM
AUC (STF-62247): 0.984
IC50 (STF-62247): > 10.2 µM
AUC (CX-5461): 0.948
IC50 (CX-5461): > 10.2 µM

NCI-H1781 (lung adenocarcinoma, adherent)
AUC (Obatoclax mesylate): 0.655
IC50 (Obatoclax mesylate): 2.69 µM
AUC (CP724714): 0.989
IC50 (CP724714): > 10.2 µM
AUC (STF-62247): 0.989
IC50 (STF-62247): > 10.2 µM
AUC (CX-5461): 0.986
IC50 (CX-5461): > 10.2 µM

NCI-H1792 (lung adenocarcinoma, adherent)
AUC (Obatoclax mesylate): 0.306
IC50 (Obatoclax mesylate): 0.304 µM
AUC (CP724714): 0.989
IC50 (CP724714): > 10.2 µM
AUC (STF-62247): 0.985
IC50 (STF-62247): > 10.2 µM
AUC (CX-5461): 0.989
IC50 (CX-5461): > 10.2 µM

NCI-H1793 (lung adenocarcinoma, adherent)
AUC (Obatoclax mesylate): 0.842
IC50 (Obatoclax mesylate): > 16 µM
AUC (CP724714): 0.979
IC50 (CP724714): > 10.2 µM
AUC (STF-62247): 0.976
IC50 (STF-62247): > 10.2 µM
AUC (CX-5461): 0.982
IC50 (CX-5461): > 10.2 µM

NCI-H1915 (large cell lung carcinoma, adherent)
AUC (Obatoclax mesylate): 0.472
IC50 (Obatoclax mesylate): 0.837 µM
AUC (CP724714): 0.984
IC50 (CP724714): > 10.2 µM
AUC (STF-62247): 0.98
IC50 (STF-62247): > 10.2 µM
AUC (CX-5461): 0.843
IC50 (CX-5461): 7.46 µM

NCI-H1944 (lung adenocarcinoma, adherent)
AUC (Obatoclax mesylate): 0.492
IC50 (Obatoclax mesylate): 0.947 µM
AUC (CP724714): 0.951
IC50 (CP724714): > 10.2 µM
AUC (STF-62247): 0.979
IC50 (STF-62247): > 10.2 µM
AUC (CX-5461): 0.896
IC50 (CX-5461): > 10.2 µM

NCI-H1993 (lung adenocarcinoma, adherent)
AUC (Obatoclax mesylate): 0.731
IC50 (Obatoclax mesylate): 5.71 µM
AUC (CP724714): 0.94
IC50 (CP724714): > 10.2 µM
AUC (STF-62247): 0.914
IC50 (STF-62247): > 10.2 µM
AUC (CX-5461): 0.983
IC50 (CX-5461): > 10.2 µM

NCI-H2009 (lung adenocarcinoma, adherent)
AUC (Obatoclax mesylate): 0.339
AUC (CP724714): 0.98
IC50 (CP724714): > 10.2 µM
AUC (STF-62247): 0.986
IC50 (STF-62247): > 10.2 µM
AUC (CX-5461): 0.979
IC50 (CX-5461): > 10.2 µM

NCI-H2023 (lung adenocarcinoma, adherent)
AUC (Obatoclax mesylate): 0.454
IC50 (Obatoclax mesylate): 0.729 µM
AUC (CP724714): 0.979
IC50 (CP724714): > 10.2 µM
AUC (STF-62247): 0.983
IC50 (STF-62247): > 10.2 µM
AUC (CX-5461): 0.944
IC50 (CX-5461): > 10.2 µM

NCI-H2029 (small cell lung carcinoma, adherent)
AUC (Obatoclax mesylate): 0.846
IC50 (Obatoclax mesylate): 10 µM
AUC (CP724714): 0.992
IC50 (CP724714): > 10.2 µM
AUC (STF-62247): 0.992
IC50 (STF-62247): > 10.2 µM
AUC (CX-5461): 0.969
IC50 (CX-5461): > 10.2 µM

NCI-H2030 (lung adenocarcinoma, adherent)
AUC (Obatoclax mesylate): 0.305
IC50 (Obatoclax mesylate): 0.261 µM
AUC (CP724714): 0.936
IC50 (CP724714): > 10.2 µM
AUC (STF-62247): 0.963
IC50 (STF-62247): > 10.2 µM
AUC (CX-5461): 0.919
IC50 (CX-5461): > 10.2 µM

NCI-H2052 (mesothelioma, adherent)
AUC (Obatoclax mesylate): 0.446
IC50 (Obatoclax mesylate): 0.684 µM
AUC (CP724714): 0.969
IC50 (CP724714): > 10.2 µM
AUC (STF-62247): 0.973
IC50 (STF-62247): > 10.2 µM
AUC (CX-5461): 0.972
IC50 (CX-5461): > 10.2 µM

NCI-H2085 (lung adenocarcinoma, adherent)
AUC (Obatoclax mesylate): 0.163
IC50 (Obatoclax mesylate): 0.0837 µM
AUC (CP724714): 0.966
IC50 (CP724714): > 10.2 µM
AUC (STF-62247): 0.932
IC50 (STF-62247): > 10.2 µM
AUC (CX-5461): 0.849
IC50 (CX-5461): 8.7 µM

NCI-H2087 (lung adenocarcinoma, semi-adherent)
AUC (Obatoclax mesylate): 0.22
IC50 (Obatoclax mesylate): 0.14 µM
AUC (CP724714): 0.978
IC50 (CP724714): > 10.2 µM
AUC (STF-62247): 0.977
IC50 (STF-62247): > 10.2 µM
AUC (CX-5461): 0.84
IC50 (CX-5461): 7.84 µM

NCI-H2110 (non-small cell lung carcinoma, adherent)
AUC (Obatoclax mesylate): 0.439
IC50 (Obatoclax mesylate): 0.68 µM
AUC (CP724714): 0.969
IC50 (CP724714): > 10.2 µM
AUC (STF-62247): 0.986
IC50 (STF-62247): > 10.2 µM
AUC (CX-5461): 0.666
IC50 (CX-5461): 1.87 µM

NCI-H2122 (lung adenocarcinoma, adherent)
AUC (Obatoclax mesylate): 0.251
IC50 (Obatoclax mesylate): 0.204 µM
AUC (CP724714): 0.988
IC50 (CP724714): > 10.2 µM
AUC (STF-62247): 0.989
IC50 (STF-62247): > 10.2 µM
AUC (CX-5461): 0.989
IC50 (CX-5461): > 10.2 µM
